Reference: PubChem BioAssay AID686978 (National Center for Advancing Translational Sciences (NCATS), 2013)
“And” between values parts separate entries of the source, which are not always exact repeats. Identical values can stand only once. The whole screen tested about 420,000 compounds, of which about 64,000 (15%) were called active. Inconclusive results, whose numbers are uncertain, are shown with a selection of clear calls. The call rests on the fitted dose curve; in most records, active means well fitted inhibition curve with a large enough effect; inconclusive means small, poorly fitted or top-dose-only effect; inactive means flat fitted curve, though single readings scatter. Where the call is inconclusive, the potency comes from a doubtful curve fit.

Test: qHTS for Inhibitors of human tyrosyl-DNA phosphodiesterase 1 (TDP1): qHTS in cells in absence of CPT; further: nearly all actives have a fitted effect of over 55% in size
Conditions: DT40 Tdp1-/- hTDP1 cells, no CPT, ATP luminescence, 48 h; activity change, negative = growth inhibition: at 46.2 µM (top of the series) unless noted
In short: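 DT40 Tdp1-/-;hTDP1 cells, no CPT (DMSO vehicle only), 400 cells/well; compounds pin-transferred; ≥48 hr, 37 °C; CellTiter-Glo 30 min RT dark, luminescence read.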
On the % scale 0 is the no-effect control and ±100 the full control effect; potency means the concentration at half of the fitted maximal effect; tags describe the fitted curve by direction and shape.

SMILES | activity change, negative = growth inhibition | Potency
CCN1CCN(CC(=O)Nc2nc3ccc(C)cc3s2)CC1 | inconclusive: -31.5% [inhibitor] | –
S=C(Nc1ccccc1)N1CCN(Cc2ccccc2)CC1 | inactive: -5.67% | –
COc1cc(CNC(=O)c2cnc3c(-c4cccc(C)c4)c(C)nn3c2C)cc(OC)c1OC | – | active: 16.4 µM
CC(CN1CCCCC1)OC(=O)c1cccc(F)c1 (stereo unspecified) | inactive: 3.59% | –
CNS(=O)(=O)c1cc(C(=O)O)ccc1OC | – | inconclusive: 29.1 µM [inhibitor, single point]
Cc1ccc(S(=O)(=O)N(C)c2ccc(OCC(=O)Nc3nc4c(ccc5ccccc54)s3)cc2)cc1 | – | inconclusive: 13 µM [inhibitor, partial curve, poor fit]
Cc1ccc(-c2nc(S(=O)(=O)c3ccc(C)cc3)c(N(C)C)o2)cc1 | – | active: 23.1 µM
CC(C)Oc1cc(F)ccc1-c1cc(C(=O)NCCCn2ccnc2)[nH]n1 | – | inconclusive: 29.1 µM [inhibitor, single point]
O=C(c1ccc(=O)[nH]c1)N1CCN(S(=O)(=O)c2ccc3ccccc3c2)CC1 | inactive: 0.611% | –
O=C(OCc1cc(Cl)ccc1OC(F)F)c1cncc(Br)c1 | – | inconclusive: 25.9 µM [inhibitor, single point]
CN(CC(=O)Nc1ccc(OC(F)(F)F)cc1)C(=O)Cc1cccs1 | – | inconclusive: 23.1 µM [inhibitor, single point]
COCC(=O)N1CCC2(CCCN(C(=O)Nc3cccc(C#N)c3)C2)CC1 | inactive: 3.48% | –
O=C(c1noc2c1CCCC2)N1CCc2ccccc2C1 | – | inconclusive: 29.1 µM [inhibitor, single point]
CC(C)c1ccc(N(CC(=O)NCc2ccco2)C(=O)CCC(=O)Nc2nccs2)cc1 | – | inconclusive: 20.6 µM [inhibitor, partial curve, poor fit]
Cc1ccc(-c2ccc(C3C(C#N)=C(N)Oc4n[nH]c(C)c43)o2)cc1 (stereo unspecified) | – | inconclusive: 29.1 µM [inhibitor, single point]
Cc1ccc(NC(=O)C2COc3ccccc3O2)cc1S(=O)(=O)N1CCOCC1 (stereo unspecified) | – | inconclusive: 29.1 µM [inhibitor, single point]
COc1ccc(/C=N/n2cnc3c([nH]c4ccccc43)c2=O)cc1CO | – | inconclusive: 20.6 µM [inhibitor, single point]
CCC(=O)Nc1ccc(/C(C)=N/NC(=O)c2c(-c3ccccc3Cl)noc2C)cc1 | – | inconclusive: 25.9 µM [inhibitor, single point]
O=C(NCC1CCCO1)c1ccc(NC(=O)c2ccc([N+](=O)[O-])cc2)cc1 (stereo unspecified) | inactive: -20.5% | –
O=S(=O)(NCc1ccco1)c1ccc(Cl)cc1Cl | – | inconclusive: 23.1 µM [inhibitor, single point]
CC(C)N1CCc2c(sc(NC(=O)c3ccc4ccccc4c3)c2C(N)=O)C1 | – | inconclusive: 29.1 µM [inhibitor, single point]
COc1ccc(C(=O)CCc2ccccc2)cc1 | inactive: -2.4% | –
FC(F)(F)c1cccc(N2CCC(N=CN3CCCCCC3)=N2)c1 | – | inconclusive: 16.4 µM [inhibitor, single point]
CC(C)COC(=O)C1[C@H]2C(=O)N(Cc3cccs3)C[C@]23C=C[C@H]1O3 (stereo partly specified) | inactive: 2.74% | –

SMILES | activity change, negative = growth inhibition | Potency
Cc1cccc(CNS(=O)(=O)c2ccc(-c3coc(C)n3)cc2)c1 | – | inconclusive: 13 µM [inhibitor, partial curve, poor fit]
CC(C)N(C(=S)Nc1cccc(S(=O)(=O)N(C)C)c1)c1ccccc1 | – | inconclusive: 29.1 µM [inhibitor, partial curve, poor fit]
COc1cc2c(cc1OC)C(C)N(C(=O)c1cc(C)on1)CC2 (stereo unspecified) | – | active: 1.03 µM
O=S(=O)(c1ccc(SCCOc2ccc(Cl)cc2)nc1)N1CCCC1 | – | inconclusive: 29.1 µM [inhibitor, single point]
CCOc1ccccc1CN1CCN(CCCn2cccn2)CC1CCO (stereo unspecified) | inactive: -24.2% | –
COc1ccccc1Nc1nc(-c2ccccc2)c(CC(=O)O)s1 | inactive: -5.73% | –
CCOC(=O)c1c(-c2ccc(OC)c(OC)c2)csc1NC(=O)c1ccccc1F | inactive: -13% | –
CCN1C(=O)[C@H]2[C@@H](c3ccc(C)cc3)N[C@]3(CCCN(Cc4ccco4)C3=O)[C@H]2C1=O | – | inconclusive: 29.1 µM [inhibitor, single point]
COC(=O)CNC(=O)C1Cc2ccccc2CN1S(=O)(=O)c1cccs1 (stereo unspecified) | inactive: -8.22% | –
COc1cccc(CNc2cc(CSc3ccc(Cl)cc3)nc(C)n2)c1 | – | inconclusive: 25.9 µM [inhibitor, single point]
COc1ccc2[nH]cc(CCNC(=O)Nc3cc(C)cc(C)c3)c2c1 | inactive: -2.84% | –
CCC(Nc1ccc(-c2nc(-c3cccnc3)no2)cc1[N+](=O)[O-])c1ccccc1 (stereo unspecified) | – | inconclusive: 18.4 µM [inhibitor, single point]
CC1CCN(C(=O)Cn2cc(C(F)(F)F)ccc2=O)c2ccccc2S1 (stereo unspecified) | – | inconclusive: 29.1 µM [inhibitor, single point]
COc1ccc(NC(=O)CN(C)C(=O)c2cccnc2Sc2ccc(C)c(C)c2)cc1 | inactive: 2.56% | –
O=c1c2cccnc2n(Cc2cccc(F)c2)c(=O)n1Cc1ccc(F)cc1 | – | inconclusive: 18.4 µM [inhibitor, partial curve]
O=c1[nH][nH]c2c1[C@@H](c1ccc(F)cc1)O[C@H](C1CCCCC1)C2 | – | inconclusive: 16.4 µM [inhibitor, partial curve]
COCC(=O)Nc1nnc(COc2ccc(Cl)cc2)s1 | inactive: -9.72% | –
COP1(=O)C[C@@H](O)[C@@H](O)[C@@H](COCc2ccccc2)O1 (stereo partly specified) | inactive: 0.0592% | –
O=C(c1cccc(S(=O)(=O)N2CCN(c3ccc(F)cc3)CC2)c1)N1CCCCCCC1 | – | inconclusive: 25.9 µM [inhibitor, partial curve]
C=CCOc1ccc(CNn2c(C)n[nH]c2=S)cc1OC | inactive: -26.5% | –
Cc1ccc(CNC(=O)c2cc(-c3ccccc3)n(Cc3cc(C)no3)n2)cc1 | – | inconclusive: 29.1 µM [inhibitor, single point]
C=CCOc1ccc(C2=NO[C@@H]3[C@@H]4C[C@@H]([C@H]5C(=O)N(C)C(=O)[C@@H]45)[C@H]23)cc1 | inactive: -17.7% | –
Cc1cc(C)cc(OCc2nnc(N)s2)c1 | inactive: -3.31% | –
Cc1ccc(S[C@@H](CCN2CC[C@H](C(C)(C)C)CCC2=O)c2ccccc2)cc1 | – | inconclusive: 35.5 µM [inhibitor, single point] and inconclusive: 20.6 µM [inhibitor, single point]

SMILES | activity change, negative = growth inhibition | Potency
CSc1nnc(-c2cc(Br)ccc2N=Cc2c(C)[nH]n(-c3ccccc3)c2=O)c(=O)[nH]1 | – | inconclusive: 16.4 µM [inhibitor, single point]
O=C1C(Cl)=C(Nc2ccccc2O)C(=O)N1CCc1ccccc1 | inactive: -49.1% | –
O=C1Cc2cc(S(=O)(=O)Nc3ccc(OC(F)(F)F)cc3)cc3c2N1CCC3 | – | active: 18.4 µM
CN(CCCC(=O)Nc1ccc(Br)cc1F)S(=O)(=O)c1ccccc1 | – | inconclusive: 29.1 µM [inhibitor, single point]
CCn1c(-c2ccccc2Cl)nn(CC(=O)Nc2ccccc2OC)c1=S | – | inconclusive: 29.1 µM [inhibitor, single point]
Fc1c(F)c(C(F)(F)F)c(F)c(F)c1N1CCN(c2ccc3nnc(C(F)(F)F)n3n2)CC1 | – | active: 23.1 µM
COc1ccc(CCN(C)C(=O)c2cc(S(=O)(=O)N3CCCCCC3)ccc2OC)cc1OC | – | inconclusive: 16.4 µM [inhibitor, partial curve]
COc1ccc(Cn2c(-c3ccc(OC)c(O)c3)nc3ccccc32)cc1O | – | inconclusive: 9.2 µM [inhibitor, partial curve]
O=C(Nc1ccc(-c2nnc(-c3ccccc3)o2)cc1)c1ccc(Br)o1 | – | inconclusive: 18.4 µM [inhibitor, single point]
O=C(CSc1cn(CCNC(=O)c2cccs2)c2ccccc12)NCC1CCCO1 (stereo unspecified) | – | inconclusive: 29.1 µM [inhibitor, single point]
C[C@H](NC(=O)OC(C)(C)C)C(=O)N/N=C/C1=Cc2ccccc2OC1 | – | inconclusive: 29.1 µM [inhibitor, single point]
O=C(Nc1ccccc1)c1cc2c(=O)c3ccccc3oc2nc1C(F)(F)F | inactive: -8.48% | –
CCOC(=O)C1=c2/c(=C/c3ccncc3)c(N)c(C(=O)OC)n2C(=O)C(c2ccncc2)S1 (stereo unspecified) | – | inconclusive: 11.6 µM [inhibitor, single point]
NNC(=O)CNC(c1ccccc1)c1cc(Br)ccc1NC(=O)c1ccccc1Br (stereo unspecified) | inactive: -5.84% | –
Cc1ccnc(NS(=O)(=O)c2ccc(NC(=O)c3cccc(Cl)c3)cc2)n1 | inactive: 0.554% | –
Cc1ccc(-c2nc(NC(=O)CSc3nnc4scc(-c5ccccc5)n34)ns2)cc1 | – | active: 20.6 µM
Cn1c(/C=N/NC(=O)c2ccccc2)nc2ccccc21 | – | active: 25.9 µM
O=C(OCC(=O)c1ccc[nH]1)c1ccc(S(=O)(=O)N2CCCCCC2)cc1 | inactive: -4.24% | –
COc1ccc(/C=C/C(=O)N2CCc3c(cnc(C)c3CNS(=O)(=O)c3cccs3)C2)cc1 | – | inconclusive: 20.6 µM [inhibitor, single point]
O=C(Nc1cccc(S(=O)(=O)N2CCCCCC2)c1)C1CC(=O)N(c2ccc3c(c2)OCCO3)C1 (stereo unspecified) | inactive: -19.1% | –
COc1cc(OC)c(/C=N/NC(N)=S)cc1Br | – | inconclusive: 20.6 µM [inhibitor, single point]
CC(NC(=O)CCCN1C(=O)CCn2nc(-c3cn(C)c4ccccc34)cc21)c1ccccc1 (stereo unspecified) | – | active: 23.1 µM
CC1(C(=O)NS(=O)(=O)c2ccc(C#N)cc2)CCN1C(=O)c1ccccc1CCc1ccccc1 (stereo unspecified) | – | inconclusive: 23.1 µM [inhibitor, single point]
